# Experimental data taken from PubChem BioAssay AID686978 (National Center for Advancing Translational Sciences (NCATS), 2013).
# Screen size: about 420,000 compounds; about 64,000 (15%) were called active. The shares of active, inactive and inconclusive entries below differ from those in the screen. The call rests on the fitted dose curve; in most records, active means well fitted inhibition curve with a large enough effect; inconclusive means small, poorly fitted or top-dose-only effect; inactive means flat fitted curve, though single readings scatter. Potencies of inconclusive entries are left out as doubtful fits.
# Assay: qHTS for Inhibitors of human tyrosyl-DNA phosphodiesterase 1 (TDP1): qHTS in cells in absence of CPT; further: nearly all actives have a fitted effect of over 55% in size
# Settings: DT40 Tdp1-/- hTDP1 cells, no CPT, ATP luminescence, 48 h; activity change, negative = growth inhibition: at 46.2 µM (top of the series)
# Procedure, shortened: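 A cellular qHTS used chicken DT40 cells lacking endogenous Tdp1 but carrying stably transfected human TDP1. Compounds were applied without camptothecin, and cell growth kinetics were judged by ATP-dependent luminescence after ≥48 hr.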
# On the % scale 0 is the no-effect control and ±100 the full control effect; potency means the concentration at half of the fitted maximal effect; tags describe the fitted curve by direction and shape.
Structure (SMILES),Potency,"activity change, negative = growth inhibition"
Cc1cccc(NC(=O)COc2coc(CN3CCN(c4ccccc4)CC3)cc2=O)c1C,"inconclusive [inhibitor, single point]",
O=C(c1[nH]c(C(F)(F)F)nc1-c1ccccc1)N1CCN(Cc2c(F)cccc2Cl)CC1,,inactive: -22%
O=C(NCCC1=CCCCC1)C1CCN(Cc2cnn(-c3ccccc3)c2-n2cccc2)CC1,"inconclusive [inhibitor, single point]",
Cc1ccccc1Cn1cc(S(=O)(=O)CC(=O)N2CCCCC2)c2ccccc21,"inconclusive [inhibitor, single point]",
Cc1ccc(-n2nc3c(c2NC(=O)c2cccs2)CS(=O)(=O)C3)c(C)c1,,inactive: 15.2%
CN(C)c1cccc(C(=O)OCC(=O)NC(=O)NCc2ccccc2)c1,"inconclusive [inhibitor, single point]",
N#Cc1c(Oc2ccc3ccccc3c2)sc(C(=O)c2ccccc2)c1N,"inconclusive [inhibitor, single point]",
CCCCCCCCCCCCCCCC(=O)O[C@H](CC(=O)O)C[N+](C)(C)C,active: 29.9 µM,
Cc1nc2ccccn2c1-c1ccnc(=S)[nH]1,active: 23.1 µM,
Cc1nc(-c2ccccc2)[nH]c(=O)c1Oc1ccc(Cl)cc1Cl,"inconclusive [inhibitor, partial curve]",
CCn1c(CN2CCN(C(c3ccccc3)c3ccccc3)CC2)nc2c1c(=O)n(C)c(=O)n2C,"inconclusive [inhibitor, single point]",
Cc1ccc2c(c1)C(c1ccccc1)N(C(=O)c1ccc(F)cc1)CC(=O)N2 (stereo not drawn),"inconclusive [inhibitor, single point]",
COC(=O)c1ccc(CSC2=NC[C@@H]3[C@@H]4C(=O)N(Cc5ccccc5)C(=O)[C@@H]4[C@](Cc4ccccc4)(C(=O)OC)N23)cc1,"inconclusive [inhibitor, single point]",
CCc1ccccc1NC(=O)c1onc(C)c1Cl,"inconclusive [inhibitor, single point]",
O=C(CCCc1nc(-c2ccccc2)no1)NC1CCCCC1,,inactive: -20.1%
C=CCn1c(NCc2cc(C)ccc2O)nc2ccccc21,"inconclusive [inhibitor, single point]",
COC(=O)c1cc(=O)n(CCc2ccccc2F)c(=Nc2ccc(F)c(Cl)c2)s1,active: 8.2 µM,
CC(C(=O)Nc1cccnc1)C1Sc2ccccc2NC1=O (stereo not drawn),,inactive: -3.27%
COC(=O)[C@]12CCCCC=C1N(Cc1ccc(Cl)cc1Cl)C(=O)[C@H](CC(=O)N1CCOCC1)C2,"inconclusive [inhibitor, single point]",
CN(C)CCCNc1nc2cc(-c3cccc(Cl)c3)sc2c(=O)n1C,"inconclusive [inhibitor, single point]",
CN(CC(=O)Nc1ccccc1N1CCOCC1)CC(=O)Nc1ccc(F)c(F)c1F,"inconclusive [inhibitor, single point]",
COc1ccc(CCNC(=O)CS(=O)(=O)Cc2nc(-c3cccc(Cl)c3)oc2C)cc1OC,"inconclusive [inhibitor, single point]",
COc1ccc(-c2cc(C(=O)NCCc3ccccc3)c3c(-c4ccc(Cl)cc4)[nH]nc3n2)cc1,active: 10.3 µM,
CCOc1cc(N2CCOCC2)c(OCC)cc1NS(=O)(=O)c1cc(NC(C)=O)ccc1OC,,inactive: -13.7%
COc1ccc(Cl)cc1S(=O)(=O)NCc1ccncc1,"inconclusive [inhibitor, single point]",

Structure (SMILES),Potency,"activity change, negative = growth inhibition"
CCCNC(=O)c1c(NC(=O)c2ccccc2)sc2c1CCC(C(C)(C)C)C2 (stereo not drawn),,inactive: -11.4%
O=C(O)CCC(=O)Nc1ccc(SSc2ccc(NC(=O)CCC(=O)O)cc2)cc1,,inactive: -0.942%
CC(Oc1ccccc1F)C(=O)NNC(=O)CCNC(=O)c1ccccc1Cl (stereo not drawn),,inactive: -4.51%
N=C(N)CCCOc1ccccc1-c1ccccc1,,inconclusive: -33.2% [inhibitor]
O=C(N/N=C/c1cccs1)c1[nH]ncc1Br,,inactive: 0.145%
COc1ccc(C(=O)c2ccccc2)cc1,,inactive: -11.4%
Cc1ccc(CSc2nc3ccncc3n2Cc2nc(-c3ccccc3C)oc2C)cc1,"inconclusive [inhibitor, single point]",
Cc1cccc(N2C(=O)N(Cc3cccc(C#N)c3)c3ccccc3S2(=O)=O)c1,"inconclusive [inhibitor, single point]",
C[C@H](CO)N1C[C@H](C)[C@@H](CN(C)C(=O)Nc2ccc3c(c2)OCO3)Oc2c(cccc2N(C)C)C1=O,,inactive: -12.8%
CCc1nnc(N2C(=O)c3cccc4cccc(c34)C2=O)s1,,inconclusive: -32.3% [inhibitor]
Cc1ccccc1C(=O)N1CCC2CC1c1cc(-c3ccc(F)cc3)ccc12 (stereo not drawn),active: 18.4 µM,
O=C(O)C1=C[C@@H](O)[C@@H](O)[C@H](O)C1,inactive,
CCOC(=O)c1c(NC(=O)CN2C(=O)NC3(CCCCCC3)C2=O)sc(C)c1-c1ccc(C)cc1,active: 16.4 µM,
CCOC(=O)C1=C(C)NC(C)=C(C(=O)OCC)C1c1ccc(OC)c(OC)c1,"inconclusive [inhibitor, partial curve]",
CCc1ccc(NC(=O)CC2S/C(=N/N=C3CCCCCC3)NC2=O)cc1 (stereo not drawn),"inconclusive [inhibitor, single point]",
OCCSc1ncnc2c1oc1ccccc12,,inactive: -15.8%
CCCCn1nnnc1C(c1cc2ccccc2o1)N1CCN(C/C=C/c2ccccc2)CC1 (stereo not drawn),active: 16.4 µM,
CSCCC(NS(=O)(=O)c1ccccc1F)C(=O)N1CCCCCC1 (stereo not drawn),,inactive: 14.2%
CCCc1nnc(NC(=O)C(CC)Sc2nnc3c4ccccc4n(C)c3n2)s1 (stereo not drawn),"inconclusive [inhibitor, single point]",
CCc1ccc(C)[n+](CC(=O)c2cccs2)c1,"inconclusive [inhibitor, full curve, poor fit]",
Cc1ccc(CN2CCN(C(=O)CCc3ccccc3)CC2)cc1,"inconclusive [inhibitor, single point]",
CCCc1nc2scc(-c3ccccc3)c2c(=O)n1N,"inconclusive [inhibitor, partial curve]",
CC(C)N(Cc1nc(-c2ccc(Cl)cc2)no1)C(=O)c1ccco1,active: 23.1 µM,
O=C(CSc1nnc(-c2ccccc2O)o1)Oc1ccc(Br)cc1,"inconclusive [inhibitor, single point]",
COc1cc(OC)c(NC(=O)CNC(=O)Cn2ccc3ccccc3c2=O)cc1Cl,,inactive: -29.4%

Structure (SMILES),Potency,"activity change, negative = growth inhibition"
COc1ccc2c(c1)c1c(c(=O)n(-c3cccc(C)c3)c(=O)n1CC(=O)NCc1ccc(C)cc1)n2C,"inconclusive [inhibitor, full curve]",
COc1cc(C(=O)NCc2ccccc2)cc(Br)c1OC,"inconclusive [inhibitor, single point]",
O=C(/C=C(\O)c1ccccc1)c1ccccc1O,active: 8.2 µM,
O=C(CSc1nnc(NC(=O)C2CC2)s1)NCc1ccccc1Cl,,inactive: -11.1%
CC(=O)Nc1ccc(S(=O)(=O)Nc2cccc3cccnc23)cc1,,inactive: -20%
COc1cc2nc(CSc3nc(-c4ccc(F)cc4)cs3)[nH]c(=O)c2cc1OC,"inconclusive [inhibitor, single point]",
CC(C)(C)c1ccc(C(=O)NC(Cc2c[nH]c3ccccc23)C(=O)OCC(=O)c2ccc(Br)cc2)cc1 (stereo not drawn),"inconclusive [inhibitor, partial curve]",
CN(CCOC(=O)c1cccc(F)c1)Cc1ccccc1,"inconclusive [inhibitor, single point]",
CCC(C)C1Nc2ccc(C(=O)NCCc3ccc(OC)c(OC)c3)cc2NC1=O (stereo not drawn),"inconclusive [inhibitor, single point]",
COc1ccccc1-c1noc(CSc2nc(C)cc(=O)[nH]2)n1,,inactive: -1.42%
Cc1ccc(C2=NNC3(CCOC(C)(C)C3)S2)cc1 (stereo not drawn),,inactive: -20.3%
CCCCOc1cccc(C(=O)NNC(=S)NC2CCCCC2)c1,active: 16.4 µM,
COc1ccccc1-n1c(=S)[nH]c2c(sc(=S)n2-c2ccccc2C)c1=O,"inconclusive [inhibitor, single point]",
Cc1cc(C(=O)COc2ccc3ccc(=O)oc3c2)c(C)n1C,"inconclusive [inhibitor, single point]",
O=C(NCCCc1ccccn1)C1CCC(=O)N(Cc2cccc(F)c2)C1 (stereo not drawn),,inactive: -3.1%
Cc1coc2c1c(C)cc1oc(=O)c(CC(=O)NCCCN3CCCC3=O)c(C)c12,"inconclusive [inhibitor, single point]",
CC(C)(C)Nc1nc(Cl)nc(NCc2ccccc2)n1,,inconclusive: -35.2% [inhibitor]
CC(C)CCn1c(CN2CCN(Cc3ccccc3)CC2)nc2c1c(=O)n(C)c(=O)n2C,active: 16.4 µM,
C/C(=N\Nc1nc(C)cc(-c2ccccc2)n1)c1ccc(O)cc1,active: 4.61 µM,
Cc1ccc(-c2nn(C)c(=O)c3ccccc23)cc1CN1CCOCC1,,inconclusive: -35.4% [inhibitor]
Fc1ccc(-c2ccc3c(c2)C2CC3CCN2)cc1 (stereo not drawn),active: 23.1 µM,
COc1ccc(C(=O)NNC(=O)COc2ccc(Cl)cc2C)cc1S(=O)(=O)N1CCOCC1,"inconclusive [inhibitor, single point]",
C=CCNC(=O)C(=O)NCC(c1ccc2c(c1)OCO2)N1CCN(c2ccc(F)cc2)CC1 (stereo not drawn),"inconclusive [inhibitor, single point]",
